Assay results from PubChem BioAssay AID686979 (National Center for Advancing Translational Sciences (NCATS), 2013).
About 50,000 (12%) of roughly 420,000 compounds were called active. The inconclusive results got no clear call from the source; some entries with a clear call stand among them for comparison. The call rests on the fitted dose curve; in most records, active means well fitted inhibition curve with a large enough effect; inconclusive means small, poorly fitted or top-dose-only effect; inactive means flat fitted curve, though single readings scatter. No potency is given beside an inconclusive call; the fits are too rough.

Experiment: qHTS for Inhibitors of human tyrosyl-DNA phosphodiesterase 1 (TDP1): qHTS in cells in presence of CPT; further: nearly all actives have a fitted effect of over 55% in size
Conditions: chicken DT40 Tdp1-/-;hTDP1 cells + 20 nM CPT, ATP luminescence, 48 h; activity change, negative = growth inhibition: at 46.2 µM (top of the series) unless noted
Method in brief: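 Chicken DT40 Tdp1-/- cells complemented with human TDP1, 400 cells/well, exposed to compounds plus 20 nM camptothecin for at least 48 h at 37 C; viability read as ATP content by CellTiter-Glo luminescence.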
On the % scale 0 is the no-effect control and ±100 the full control effect; potency means the concentration at half of the fitted maximal effect; tags describe the fitted curve by direction and shape.

| SMILES | Potency | activity change, negative = growth inhibition |
| --- | --- | --- |
| O=C(CCCN1C(=O)/C(=C/c2ccccc2Cl)SC1=S)N1CCOCC1 | inconclusive [inhibitor, single point] | – |
| CCOc1ccc(C(C(=O)NC2CCCC2)N(Cc2ccccc2)C(=O)c2nsc(Cl)c2Cl)cc1 (configuration not stated) | active: 20.6 µM | – |
| Cc1ccccc1C#CC1=CC(=O)CC(C)(C)C1 | active: 20.6 µM | – |
| COc1cc2c(cc1OC)C(c1cc(OC)c(OC)c(OC)c1)C1(O)C(=O)OCC1(O)C2 (configuration not stated) | – | inactive: -0.825% |
| CCCc1ccc(C2Sc3ccccc3NC3=C2C(=O)c2ccccc23)cc1 (configuration not stated) | inconclusive [inhibitor, single point] | – |
| CC(=O)c1ccc([N+](=O)[O-])c(CS(=O)(=O)c2ccc(Cl)cc2)c1 | – | inactive: -18.8% |
| COc1ccc(N=C2SC(CC(=O)Nc3ccccc3)C(=O)N2Cc2ccco2)cc1 (configuration not stated) | inconclusive [inhibitor, single point] | – |
| COc1ccc(-c2cc(C(=O)Nc3ccc(Cl)cc3Cl)c3ccccc3n2)cc1OC | inconclusive [inhibitor, partial curve, poor fit] | – |
| Cc1ccccc1C(=O)NC(CC(C)C)C(=O)OCC(=O)c1c(N)n(C)c(=O)n(C)c1=O (configuration not stated) | – | inactive: -0.185% |
| CC1CCN(CC(=O)c2c[nH]c3ccccc23)CC1 | inconclusive [inhibitor, partial curve, poor fit] | – |
| CCC1CN(CCNC(=O)c2ccc(N3CCOCC3)cc2)Cc2cc(OC)ccc2O1 (configuration not stated) | – | inactive: -16.4% |
| CCOC(=O)CNS(=O)(=O)c1cc(-c2nnc(Nc3cccc(O)c3)c3ccccc23)ccc1C | inconclusive [inhibitor, single point] | – |
| Cc1cccc(C)c1NC1=NC(=S)N(c2ccc(C(=O)O)cc2)C12CCCCC2 | – | inactive: 2.99% |
| CCCCCCCCCCCCCCCC(=O)O[C@@H]1CC(C)=C(/C=C/C(C)=C/C=C/C(C)=C/C=C/C=C(C)/C=C/C=C(C)/C=C/C2=C(C)C[C@@H](OC(=O)CCCCCCCCCCCCCCC)CC2(C)C)C(C)(C)C1 | inconclusive [inhibitor, single point] | – |
| COc1cc2[nH]c(=S)nc(NCc3ccc(C)cc3)c2cc1OC | inconclusive [inhibitor, single point] | – |
| Cc1cccc(C)c1-n1nnnc1C(c1ccnc2ccccc12)N(CCC#N)Cc1ccccc1 (configuration not stated) | active: 13 µM | – |
| COc1cc2c(cc1OC)CN(CC(=O)Nc1ccccc1SC)CC2 | inconclusive [inhibitor, single point] | – |
| O=C(NCCOc1ccc(F)cc1)C1CCN(S(=O)(=O)c2ccccc2)CC1 | inconclusive [inhibitor, single point] | – |
| COc1ccc(N(C(=O)CNC(=O)c2ccco2)C(C(=O)NCC2CCCO2)c2ccc(OC)c(OC)c2)cc1 (configuration not stated) | inconclusive [inhibitor, single point] | – |
| Clc1ccccc1Cn1nnc2c(N3CCCC3)ncnc21 | inconclusive [inhibitor, partial curve] | – |
| COc1cc([N+](=O)[O-])ccc1NC(=O)CN1CCc2cc(OC)c(OC)cc2C1 | inconclusive [inhibitor, single point] | – |

| SMILES | Potency | activity change, negative = growth inhibition |
| --- | --- | --- |
| CC1CC(=O)N(c2ccc(NCCc3ccc(O)cc3)c([N+](=O)[O-])c2)C1=O (configuration not stated) | active: 16.4 µM | – |
| COc1ccc(N2CCN(Cc3nc4c(c(=O)n(C)c(=O)n4C)n3CCc3ccccc3)CC2)cc1 | inconclusive [inhibitor, partial curve] | – |
| COc1ccccc1C(=O)Nc1nc(-c2ccc(S(=O)(=O)N3CCOCC3)cc2)cs1 | active: 2.59 µM | – |
| CCO[C@@H]1OC(C(=O)O)=C[C@H](c2ccc3c(c2)OCO3)[C@H]1CCCO | – | inactive: -8.95% |
| CCn1cc2nc(SCC(=O)Nc3ccc(C)cc3C)n(Cc3ccc(C)cc3)c(=O)c2n1 | active: 3.66 µM | – |
| COCC1CCN(C(=O)c2cc(COc3cc(C)c(Cl)c(C)c3)on2)C1 (configuration not stated) | inconclusive [inhibitor, single point] | – |
| Cc1ccc(OCc2nnc(SCC(=O)c3ccccc3)n2-c2ccccc2)cc1 | inconclusive [inhibitor, partial curve, poor fit] | – |
| CCOC(=O)Cc1csc(NC(=O)c2ccc3ncsc3c2)n1 | inconclusive [inhibitor, single point] | – |
| Cc1cc2nc(C(C)(C)C)c(Cc3ccsc3)n2c(C)c1Br | inconclusive [inhibitor, single point] | – |
| COc1ccc(-c2noc(CCC(N)=O)n2)cc1OC | – | inconclusive: -16.3% [inhibitor] |
| Cc1cc(S(=O)(=O)Nc2cccnc2)c(C)s1 | – | inactive: -8.11% |
| Cc1ccc(C)c(NC(=O)c2ccccc2NC(=O)C2CCCO2)c1 (configuration not stated) | inconclusive [inhibitor, single point] | – |
| CCc1ccc2c(c1)C1(SC(NC(C)=O)=NN1C(C)=O)C(=O)N2CC (configuration not stated) | – | inactive: -1.89% |
| COc1ccc(-c2oc3c(CC=C(C)C)c(O[C@H]4OC(CO)C(O)C(O)C4O)cc(O)c3c(=O)c2O[C@@H]2OC(C)C(O)C(O)C2O)cc1 (some centres not stated) | – | inactive: 1.41% |
| CCOC(=O)c1cc(-c2sc(NC(=O)c3ccccc3)nc2C)n(-c2ccc(Br)cc2)n1 | inconclusive [inhibitor, single point] | – |
| CCc1nc2ccc(C(=O)NCCCN3CCCC3=O)cn2c1N(C)C(=O)C1CCCCC1 | inconclusive [inhibitor, single point] | – |
| Fc1ccc(NC(=S)Nc2cccnc2)cc1Cl | inconclusive [inhibitor, single point] | – |
| Cn1c(-c2ccc(F)cc2)cnc1NCc1cccc(F)c1 | inconclusive [inhibitor, single point] | – |
| Cc1ccc(OC(=O)CCN2C(=O)c3ccccc3C2=O)cc1C | – | inactive: -2.8% |
| Cc1ccc(S(=O)(=O)c2c(N)n(/N=C/c3ccco3)c3nc4ccccc4nc23)cc1 | inconclusive [inhibitor, single point] | – |
| CC1(c2nnc(-c3cccc(Cl)c3)o2)CC(c2cccc([N+](=O)[O-])c2)=NO1 (configuration not stated) | – | inactive: -23.9% |
